# In the supplement of paper PMC8728848:
# This is one part of the list.
# B1: LecB LY19 (Pseudomonas aeruginosa) (protein)
# chain: MATQGVFTLPANTQFGVTAFANSAGTQTVNVQVNNETVATFTGQSTNNGIIGSKVLNSGGGGKVQILVSVNGRSSDLVSAQVILANELNFALVGSEDSTDNDYNDAVVVINWPLG
# Columns and labels:
# Assay in all cases: glycan array binding signal (z-score within array); higher = stronger binding
# Details in all cases: glycan notation: IUPAC condensed, linker removed
# [1] = biological target: Gal(b1-4)GlcNAc(b1-3)Gal(b1-4)GlcNAc(b1-2)[Gal(b1-4)GlcNAc(b1-3)Gal(b1-4)GlcNAc(b1-6)]Man(a1-6)[Gal(b1-4)GlcNAc(b1-3)Gal(b1-4)GlcNAc(b1-2)Man(a1-3)]Man(b1-4)GlcNAc(b1-4)GlcNAc
# How it was run: (§1)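 The Consortium for Functional Glycomics database supplied 3228 glycan arrays, of which those lacking an available protein sequence were dropped. The binding signal, a within-array Z-score, was averaged across arrays of the same protein sequence and across linkers. Negative scores can be read as non-binding.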
# [2] = biological target: Gal(b1-4)GlcNAc(b1-3)Gal(b1-4)GlcNAc(b1-2)[Gal(b1-4)GlcNAc(b1-3)Gal(b1-4)GlcNAc(b1-6)]Man(a1-6)[Gal(b1-4)GlcNAc(b1-3)Gal(b1-4)GlcNAc(b1-2)Man(a1-3)]Man(b1-4)GlcNAc(b1-4)[Fuc(a1-6)]GlcNAc
# How it was run: as §1
# [3] = biological target: Gal(b1-4)GlcNAc(b1-3)Gal(b1-4)GlcNAc(b1-3)Gal(b1-4)GlcNAc
# How it was run: as §1
# [4] = biological target: Gal(b1-4)GlcNAc(b1-3)Gal(b1-4)GlcNAc(b1-3)Gal(b1-4)GlcNAc(b1-2)Man(a1-3)[Gal(b1-4)GlcNAc(b1-3)Gal(b1-4)GlcNAc(b1-3)Gal(b1-4)GlcNAc(b1-2)Man(a1-6)]Man(b1-4)GlcNAc(b1-4)GlcNAc
# How it was run: as §1
# [5] = biological target: Gal(b1-4)GlcNAc(b1-3)Gal(b1-4)GlcNAc(b1-3)Gal(b1-4)GlcNAc(b1-2)Man(a1-3)[Gal(b1-4)GlcNAc(b1-3)Gal(b1-4)GlcNAc(b1-3)Gal(b1-4)GlcNAc(b1-2)Man(a1-6)]Man(b1-4)GlcNAc(b1-4)[Fuc(a1-6)]GlcNAc
# How it was run: as §1
# [6] = biological target: Gal(b1-4)GlcNAc(b1-3)Gal(b1-4)GlcNAc(b1-3)Gal(b1-4)GlcNAc(b1-2)[Gal(b1-4)GlcNAc(b1-3)Gal(b1-4)GlcNAc(b1-3)Gal(b1-4)GlcNAc(b1-6)]Man(a1-6)[Gal(b1-4)GlcNAc(b1-3)Gal(b1-4)GlcNAc(b1-3)Gal(b1-4)GlcNAc(b1-2)Man(a1-3)]Man(b1-4)GlcNAc(b1-4)[Fuc(a1-6)]GlcNAc
# How it was run: as §1
# [7] = biological target: Gal(b1-4)GlcNAc(b1-3)Gal(b1-4)GlcNAc(b1-3)Gal(b1-4)GlcNAc(b1-3)Gal(b1-4)GlcNAc(b1-2)Man(a1-3)[Gal(b1-4)GlcNAc(b1-3)Gal(b1-4)GlcNAc(b1-3)Gal(b1-4)GlcNAc(b1-3)Gal(b1-4)GlcNAc(b1-2)Man(a1-6)]Man(b1-4)GlcNAc(b1-4)GlcNAc
# How it was run: as §1
# [8] = biological target: Gal(b1-4)GlcNAc(b1-3)Gal(b1-4)GlcNAc(b1-3)Gal(b1-4)GlcNAc(b1-3)Gal(b1-4)GlcNAc(b1-2)Man(a1-3)[Gal(b1-4)GlcNAc(b1-3)Gal(b1-4)GlcNAc(b1-3)Gal(b1-4)GlcNAc(b1-3)Gal(b1-4)GlcNAc(b1-2)Man(a1-6)]Man(b1-4)GlcNAc(b1-4)[Fuc(a1-6)]GlcNAc
# How it was run: as §1
# [9] = biological target: Gal(b1-4)GlcNAc(b1-3)Gal(b1-4)GlcNAc(b1-3)Gal(b1-4)GlcNAc(b1-3)Gal(b1-4)GlcNAc(b1-2)[Gal(b1-4)GlcNAc(b1-3)Gal(b1-4)GlcNAc(b1-3)Gal(b1-4)GlcNAc(b1-3)Gal(b1-4)GlcNAc(b1-6)]Man(a1-6)[Gal(b1-4)GlcNAc(b1-3)Gal(b1-4)GlcNAc(b1-3)Gal(b1-4)GlcNAc(b1-3)Gal(b1-4)GlcNAc(b1-2)Man(a1-3)]Man(b1-4)GlcNAc(b1-4)[Fuc(a1-6)]GlcNAc
# How it was run: as §1
# [10] = biological target: Gal(b1-4)GlcNAc(b1-3)Gal(b1-4)GlcNAc(b1-3)Gal(b1-4)GlcNAc(b1-3)Gal(b1-4)GlcNAc(b1-3)Gal(b1-4)GlcNAc(b1-2)Man(a1-3)[Gal(b1-4)GlcNAc(b1-3)Gal(b1-4)GlcNAc(b1-3)Gal(b1-4)GlcNAc(b1-3)Gal(b1-4)GlcNAc(b1-3)Gal(b1-4)GlcNAc(b1-2)Man(a1-6)]Man(b1-4)GlcNAc(b1-4)GlcNAc
# How it was run: as §1
# [11] = biological target: Gal(b1-4)GlcNAc(b1-3)Gal(b1-4)GlcNAc(b1-3)Gal(b1-4)GlcNAc(b1-3)Gal(b1-4)GlcNAc(b1-3)Gal(b1-4)GlcNAc(b1-2)Man(a1-3)[Gal(b1-4)GlcNAc(b1-3)Gal(b1-4)GlcNAc(b1-3)Gal(b1-4)GlcNAc(b1-3)Gal(b1-4)GlcNAc(b1-3)Gal(b1-4)GlcNAc(b1-2)Man(a1-6)]Man(b1-4)GlcNAc(b1-4)[Fuc(a1-6)]GlcNAc
# How it was run: as §1
# [12] = biological target: Gal(b1-4)GlcNAc(b1-3)Gal(b1-4)GlcNAc(b1-3)Gal(b1-4)GlcNAc(b1-3)Gal(b1-4)GlcNAc(b1-3)Gal(b1-4)GlcNAc(b1-2)[Gal(b1-4)GlcNAc(b1-3)Gal(b1-4)GlcNAc(b1-3)Gal(b1-4)GlcNAc(b1-3)Gal(b1-4)GlcNAc(b1-3)Gal(b1-4)GlcNAc(b1-6)]Man(a1-6)[Gal(b1-4)GlcNAc(b1-3)Gal(b1-4)GlcNAc(b1-3)Gal(b1-4)GlcNAc(b1-3)Gal(b1-4)GlcNAc(b1-3)Gal(b1-4)GlcNAc(b1-2)Man(a1-3)]Man(b1-4)GlcNAc(b1-4)[Fuc(a1-6)]GlcNAc
# How it was run: as §1
# [13] = biological target: Gal(b1-4)GlcNAc(b1-3)Gal(b1-4)GlcNAc(b1-3)Gal(b1-4)GlcNAc(b1-3)Gal(b1-4)GlcNAc(b1-3)Gal(b1-4)GlcNAc(b1-3)Gal(b1-4)GlcNAc(b1-2)Man(a1-3)[Gal(b1-4)GlcNAc(b1-3)Gal(b1-4)GlcNAc(b1-3)Gal(b1-4)GlcNAc(b1-3)Gal(b1-4)GlcNAc(b1-3)Gal(b1-4)GlcNAc(b1-3)Gal(b1-4)GlcNAc(b1-2)Man(a1-6)]Man(b1-4)GlcNAc(b1-4)GlcNAc
# How it was run: as §1
# [14] = biological target: Gal(b1-4)GlcNAc(b1-3)Gal(b1-4)GlcNAc(b1-3)GalNAc
# How it was run: as §1
# [15] = biological target: Gal(b1-4)GlcNAc(b1-3)Gal(b1-4)GlcNAc(b1-3)[Gal(b1-4)GlcNAc(b1-3)Gal(b1-4)GlcNAc(b1-6)]GalNAc
# How it was run: as §1
# [16] = biological target: Gal(b1-4)GlcNAc(b1-3)Gal(b1-4)GlcNAc(b1-6)[Gal(b1-3)]GalNAc
# How it was run: as §1
# [17] = biological target: Gal(b1-4)GlcNAc(b1-3)Gal(b1-4)[Fuc(a1-3)]GlcNAc(b1-3)Gal(b1-4)[Fuc(a1-3)]GlcNAc
# How it was run: as §1
# [18] = biological target: Gal(b1-4)GlcNAc(b1-3)GalNAc
# How it was run: as §1
# [19] = biological target: Gal(b1-4)GlcNAc(b1-3)[Fuc(a1-3)GlcNAc(b1-6)]Gal(b1-4)Glc
# How it was run: as §1
# [20] = biological target: Gal(b1-4)GlcNAc(b1-3)[Gal(b1-4)GlcNAc(b1-6)]Gal(b1-4)GlcNAc
# How it was run: as §1
# [21] = biological target: Gal(b1-4)GlcNAc(b1-3)[GlcNAc(b1-6)]Gal(b1-4)GlcNAc
# How it was run: as §1
# [22] = biological target: Gal(b1-4)GlcNAc(b1-6)Gal(b1-4)GlcNAc
# How it was run: as §1
# [23] = biological target: Gal(b1-4)GlcNAc(b1-6)GalNAc
# How it was run: as §1
# [24] = biological target: Gal(b1-4)GlcNAc(b1-6)[Gal(b1-3)]GalNAc
# How it was run: as §1
# [25] = biological target: Gal(b1-4)GlcNAc(b1-6)[Gal(b1-4)GlcNAc(b1-3)]GalNAc
# How it was run: as §1
# [26] = biological target: Gal(b1-4)GlcNAc6P
# How it was run: as §1
# [27] = biological target: Gal(b1-6)Gal
# How it was run: as §1
# [28] = biological target: Gal3S(b1-3)GalNAc
# How it was run: as §1
# [29] = biological target: Gal3S(b1-3)GlcNAc
# How it was run: as §1
# [30] = biological target: Gal3S(b1-3)[Fuc(a1-4)]GlcNAc
# How it was run: as §1
# [31] = biological target: Gal3S(b1-4)Glc
# How it was run: as §1
# [32] = biological target: Gal3S(b1-4)Glc6S
# How it was run: as §1
# [33] = biological target: Gal3S(b1-4)GlcNAc
# How it was run: as §1
# [34] = biological target: Gal3S(b1-4)[Fuc(a1-3)]Glc6S
# How it was run: as §1
# [35] = biological target: Gal3S(b1-4)[Fuc(a1-3)]GlcNAc
# How it was run: as §1
# [36] = biological target: Gal3S(b1-4)[Fuc(a1-3)]GlcNAc6S
# How it was run: as §1
# [37] = biological target: Gal3S4S(b1-4)GlcNAc
# How it was run: as §1
# [38] = biological target: Gal3S6S(b1-4)GlcNAc
# How it was run: as §1
# [39] = biological target: Gal3S6S(b1-4)GlcNAc6S
# How it was run: as §1
# [40] = biological target: Gal4S(b1-4)GlcNAc
# How it was run: as §1
# [41] = biological target: Gal4S6S(b1-4)GlcNAc
# How it was run: as §1
# [42] = biological target: Gal6P(b1-4)GlcNAc
# How it was run: as §1
# [43] = biological target: Gal6S(b1-3)GlcNAc
# How it was run: as §1
# [44] = biological target: Gal6S(b1-3)GlcNAc6S
# How it was run: as §1
# [45] = biological target: Gal6S(b1-4)Glc
# How it was run: as §1
binder,measurement,setting,value
B1,glycan array binding signal (z-score),[1],-0.357
same,glycan array binding signal (z-score),[2],0.367
same,glycan array binding signal (z-score),[3],-0.536
same,glycan array binding signal (z-score),[4],-0.517
same,glycan array binding signal (z-score),[5],0.469
same,glycan array binding signal (z-score),[6],0.039
same,glycan array binding signal (z-score),[7],-0.45
same,glycan array binding signal (z-score),[8],0.457
same,glycan array binding signal (z-score),[9],0.294
same,glycan array binding signal (z-score),[10],-0.457
same,glycan array binding signal (z-score),[11],0.867
same,glycan array binding signal (z-score),[12],0.395
same,glycan array binding signal (z-score),[13],-0.438
same,glycan array binding signal (z-score),[14],-0.546
same,glycan array binding signal (z-score),[15],-0.541
same,glycan array binding signal (z-score),[16],-0.545
same,glycan array binding signal (z-score),[17],1.65
same,glycan array binding signal (z-score),[18],-0.546
same,glycan array binding signal (z-score),[19],0.408
same,glycan array binding signal (z-score),[20],-0.555
same,glycan array binding signal (z-score),[21],0.575
same,glycan array binding signal (z-score),[22],-0.533
same,glycan array binding signal (z-score),[23],-0.411
same,glycan array binding signal (z-score),[24],-0.44
same,glycan array binding signal (z-score),[25],-0.539
same,glycan array binding signal (z-score),[26],-0.555
same,glycan array binding signal (z-score),[27],-0.534
same,glycan array binding signal (z-score),[28],-0.481
same,glycan array binding signal (z-score),[29],-0.54
same,glycan array binding signal (z-score),[30],3.07
same,glycan array binding signal (z-score),[31],-0.531
same,glycan array binding signal (z-score),[32],-0.527
same,glycan array binding signal (z-score),[33],-0.543
same,glycan array binding signal (z-score),[34],0.665
same,glycan array binding signal (z-score),[35],1.42
same,glycan array binding signal (z-score),[36],-0.545
same,glycan array binding signal (z-score),[37],-0.54
same,glycan array binding signal (z-score),[38],-0.554
same,glycan array binding signal (z-score),[39],-0.551
same,glycan array binding signal (z-score),[40],-0.518
same,glycan array binding signal (z-score),[41],-0.547
same,glycan array binding signal (z-score),[42],-0.549
same,glycan array binding signal (z-score),[43],-0.555
same,glycan array binding signal (z-score),[44],-0.559
same,glycan array binding signal (z-score),[45],-0.53
